Measurements from the supplement of paper PMC11417369.
± gives the standard deviation of the averaged measurements. Some of the results follow.

Test system: PfAP2-EXP AP2 domain (GST-tagged)
Experiment: gcPBM binding intensity (ln(normalized median fluorescence intensity)); higher = stronger DNA binding
Procedure, shortened: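 GST-tagged P. falciparum DNA-binding domains, expressed in E. coli (about 25 μg on average), were applied for 1 h to an Agilent 4 × 180k array of primer-extended double-stranded 36-bp intergenic genomic probes plus negative controls. The binding buffer was 1× PBS with 1% milk, 0.2 mg/ml BSA, 0.5% salmon testes DNA and 0.03% Triton X-100. Bound protein was detected with Alexa488 anti-GST antibody and scanned at 488 nm. Binding intensity is the highest Masliner-normalised natural-log median intensity across replicate spots of either probe orientation.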

For “ATAAACATGTATATATTAAAAAAAAAAAAAAAAAAT [CACACA_negctrl_site92]”, which “gcPBM binding intensity (ln)” value is on record?
Its value is 8.21 ± 0.46.

“TTTTTAATTTTTTTCACACATATATAAATACAAATA [CACACA_site5530]” was tested. Which “gcPBM binding intensity (ln)” value did it give?
Its value is 8.4 ± 0.41.

“AAATTACAAATAAAATGTACTCATGTTTTTATTATA [XGTACX_site7223]” was tested. Which “gcPBM binding intensity (ln)” value did it give?
The value was 8.15 ± 0.26.

With “GCAAGGTCCACACTGGTGCATTAAAAATAAAATATA [GTGCAC_site9956]” as the sequence, how does the “gcPBM binding intensity (ln)” value read?
Its value is 8.87 ± 0.18.

For “TTTTTTAAATATATATGTACATATATCTATATATAT [XGTACX_site3461]”, which “gcPBM binding intensity (ln)” value is on record?
The value was 8.62 ± 0.11.

Which “gcPBM binding intensity (ln)” value does the source give for “TTTATAATTTATAGGCGGACAGGAAAATTTTATAAA [XGTACX_site6955]” here?
Its value is 8.81 ± 0.37.

“TTTTTCTTTTTTTGTTGTACATTTTGTAATATTTAC [XGTACX_site4102]” was tested. Which “gcPBM binding intensity (ln)” value did it give?
The value was 8.78 ± 0.55.

How did the “gcPBM binding intensity (ln)” value turn out when “TACAGGAATATTTTTACACACTAAAAGTTATAAACT [CACACA_site6876]” was run?
Its value is 8.17 ± 0.38.

How did the “gcPBM binding intensity (ln)” value turn out when “TGAACAGGTCATAATTTACACACTATATATTTTATT [CACACA_site8123]” was run?
The value was 8.51 ± 0.52.

Which “gcPBM binding intensity (ln)” value does the source give for “AAGAAAAATTCTTCACGTACAAATAATTATATATAT [XGTACX_site7217]” here?
The value was 8.55 ± 0.2.

For “TATAATATATATGTATGTACGTATGTATGATTTTGT [XGTACX_site1164]”, which “gcPBM binding intensity (ln)” value is on record?
The value was 8.63 ± 0.36.

For “ATATACATTTTAAATTTTAATGTAACCCATGGGAGA [CACACA_negctrl_site588]”, which “gcPBM binding intensity (ln)” value is on record?
The value was 8.46 ± 0.46.

For “TGAACCCACAAATCACGTACATATATATACACGTGT [XGTACX_site7739]”, which “gcPBM binding intensity (ln)” value is on record?
Its value is 8.49 ± 0.31.

With “TTTAACAACTATTTCTGTACACATTTTTATATAATT [XGTACX_site4917]” as the sequence, how does the “gcPBM binding intensity (ln)” value read?
The value was 8.88 ± 0.43.

How did the “gcPBM binding intensity (ln)” value turn out when “TGTACGAGTCGTAGAGTGCAGTCTGGAGAAACGTAC [GTGCAC_site9682]” was run?
The value was 9.2 ± 0.36.

For “TATATACGTAATAGTAGTACTTTAAAATGCGGAAAT [XGTACX_site4597]”, which “gcPBM binding intensity (ln)” value is on record?
Its value is 9.14 ± 0.21.

Which “gcPBM binding intensity (ln)” value does the source give for “GATAGACACGTGCACACATGCAATACTTTATTCAGT [TGCATGCA_site778]” here?
Its value is 9.37 ± 0.11.

For “AAAAAAGATATATAAACACACATATTTATATACACA [CACACA_site6866]”, which “gcPBM binding intensity (ln)” value is on record?
The value was 8.28 ± 0.32.

With “ATTTATATTATGAGGAGTACAATACTTATAGATGTA [XGTACX_site7510]” as the sequence, how does the “gcPBM binding intensity (ln)” value read?
The value was 8.46 ± 0.32.

Which “gcPBM binding intensity (ln)” value does the source give for “ATAAATAACTTTTAAATACACACGTAAAATATATTG [CACACA_site3302]” here?
Its value is 8.64 ± 0.33.

With “ATACCATATAATTATGTGAGAAAATATAATATTCAT [CACACA_negctrl_site310]” as the sequence, how does the “gcPBM binding intensity (ln)” value read?
The value was 8.48 ± 0.34.

With “ATTTTCTTAAATAAATGTACATGGCATTAAAAGTAA [XGTACX_site5119]” as the sequence, how does the “gcPBM binding intensity (ln)” value read?
The value was 8.73 ± 0.33.

Which “gcPBM binding intensity (ln)” value does the source give for “TATTTGTATATTCATTCCTGTATTCCCTTTTTTGTA [CACACA_negctrl_site1236]” here?
The value was 8.88 ± 0.61.

For “ATATATATATATGTATGTACATAATATTTTTTTTAT [XGTACX_site5551]”, which “gcPBM binding intensity (ln)” value is on record?
The value was 10 ± 0.24.

How did the “gcPBM binding intensity (ln)” value turn out when “TGTACGTTTTTTAACACACACACAAAAAAAAAAAAA [CACACA_site6006]” was run?
The value was 8.39 ± 0.51.

With “AAAAAAAAAAAAAATACACACAAATAATAAAAATAA [CACACA_site1431]” as the sequence, how does the “gcPBM binding intensity (ln)” value read?
Its value is 8.45 ± 0.56.

Which “gcPBM binding intensity (ln)” value does the source give for “ACTGTACTATAAAATACACACATATAAATATAAATA [CACACA_site3009]” here?
Its value is 8.59 ± 0.22.

For “TATTTTAGAGAAAAAAATAAATTACAAAATGTTAGG [CACACA_negctrl_site1645]”, which “gcPBM binding intensity (ln)” value is on record?
The value was 8.35 ± 0.35.

For “TTAAATATCCATATTTCACACATTTCGATATATATA [CACACA_site4208]”, which “gcPBM binding intensity (ln)” value is on record?
Its value is 8.38 ± 0.45.

“TATAATATTATATAATGTACGCATTTATTATTTAAA [XGTACX_site8326]” was tested. Which “gcPBM binding intensity (ln)” value did it give?
The value was 8.26 ± 0.26.

“GAATGTAAATATTAAAGTACACAGAATATATCTTCA [XGTACX_site8149]” was tested. Which “gcPBM binding intensity (ln)” value did it give?
The value was 8.49 ± 0.4.

Which “gcPBM binding intensity (ln)” value does the source give for “CCTAAATAAATGGACACACACATATTTATATTTATA [CACACA_site6789]” here?
The value was 8.46 ± 0.45.

“ATAATGTCATAATTATATCCTTTGGCATAAAATAAA [XGTACX_negctrl_site574]” was tested. Which “gcPBM binding intensity (ln)” value did it give?
The value was 8.3 ± 0.45.

“AAATAAAATCATGAATGTACACAAAAATTATTGCAA [XGTACX_site5691]” was tested. Which “gcPBM binding intensity (ln)” value did it give?
Its value is 8.86 ± 0.42.

With “TTTGAAGGAAGGGGGGGAGGGGCCATAACAAAGGAA [GTGCAC_negctrl_site408]” as the sequence, how does the “gcPBM binding intensity (ln)” value read?
Its value is 10.13 ± 0.035.

Which “gcPBM binding intensity (ln)” value does the source give for “ATATATTTATATATTGCACACAAAAAAAAAAAAAAA [CACACA_site8468]” here?
Its value is 8.61 ± 0.24.

“AACATTATAAGACACACACACACATATATAAATATA [CACACA_site6622]” was tested. Which “gcPBM binding intensity (ln)” value did it give?
Its value is 8.65 ± 0.58.

With AAATAAGAACATAGAATGCACTTTTTTTTTTTTTCC as the sequence, how does the “gcPBM binding intensity (ln)” value read?
Its value is 8.14 ± 0.12.

“AAATATAATAAAATGACACACGCATATATATATATA [CACACA_site8900]” was tested. Which “gcPBM binding intensity (ln)” value did it give?
The value was 10.2 ± 0.41.

For “ATATATCCAAATAGATTACATATATATATATAGATA [TGCATGCA_negctrl_site277]”, which “gcPBM binding intensity (ln)” value is on record?
The value was 8.32 ± 0.21.

How did the “gcPBM binding intensity (ln)” value turn out when “AATATATAAGTCTACTGTACCCAAAATAAAATTTAT [XGTACX_site8727]” was run?
The value was 8.45 ± 0.34.

Which “gcPBM binding intensity (ln)” value does the source give for “GTATATATACATAAATGTACATATATATAAAAAATG [XGTACX_site3271]” here?
The value was 8.55 ± 0.33.

How did the “gcPBM binding intensity (ln)” value turn out when “TATTGCCCTTGACACACACACATATAAATAAATATA [CACACA_site7220]” was run?
The value was 8.63 ± 0.37.

How did the “gcPBM binding intensity (ln)” value turn out when “AAATATGTATATATATATATATATATATATATATAT [GTGCAC_negctrl_site335]” was run?
The value was 10 ± 0.4.
